Results on 25 molecules are retold here after patent publication US20250214977A1, “STAT6 INHIBITORS AND USES THEREOF” (Kymera Therapeutics, Inc., priority 2024, published 2025).

The target of this experiment is T1, biotinylated truncated STAT6 (123-632)-avi (Homo sapiens, UniProt P42226).
T1 sequence (P42226 123-632 limits assumed): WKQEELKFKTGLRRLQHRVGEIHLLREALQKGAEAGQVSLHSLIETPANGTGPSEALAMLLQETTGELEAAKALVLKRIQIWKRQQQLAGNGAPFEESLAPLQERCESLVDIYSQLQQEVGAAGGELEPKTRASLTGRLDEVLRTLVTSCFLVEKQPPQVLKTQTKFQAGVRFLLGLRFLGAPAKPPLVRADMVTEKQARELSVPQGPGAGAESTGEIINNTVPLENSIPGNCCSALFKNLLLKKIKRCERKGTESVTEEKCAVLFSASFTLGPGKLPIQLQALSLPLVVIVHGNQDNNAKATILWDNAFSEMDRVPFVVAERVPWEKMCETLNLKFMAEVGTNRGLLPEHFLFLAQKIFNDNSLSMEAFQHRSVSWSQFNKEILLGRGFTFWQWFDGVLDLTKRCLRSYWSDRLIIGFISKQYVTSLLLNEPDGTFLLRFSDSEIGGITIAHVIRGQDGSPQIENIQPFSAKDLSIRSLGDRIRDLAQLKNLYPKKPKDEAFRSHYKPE
The experiment can be described thus: Homogenous Time-Resolved Fluorescence (HTRF) binding assay. To be noted: 0.15 nM biotinylated truncated STAT6 (123-632)-avi, 20 nM fluorescein-labeled probe, 30 minutes room temperature.

Broadly, the IC50 is the concentration needed to halve the response being measured. `CN(C)C(=O)c1cc2c(-c3ccccc3)cc(C3=CCCN(C(=O)CCn4ccnn4)C3)c(F)c2[nH]1` [Example I-1645] displayed an IC50 of less than 100 nM. For `COc1cccc(C)c1-c1cc(C2=CCCN(C(=O)CCn3ccnn3)C2)cc2cc(C(=O)N(C)C)oc12` [Example I-1646] the value was less than 100 nM.

As for `COc1cccnc1-c1cc(C2=CCCN(C(=O)CCn3ccnn3)C2)cc2[nH]c(C(=O)N(C)C)cc12` [Example I-1647], the IC50 is less than 100 nM. In the case of `CN(C)C(=O)c1cc2cc(C3=CCCN(C(=O)C(Cn4ccnn4)c4ccn(C)n4)C3)ccc2o1` (stereo not shown) [Example I-1648] it was 1000 to 10000 nM; in that of `COc1ccccc1-c1cc(C2=CCCN(C(=O)C(C)C)C2)c(F)c2[nH]c(C(=O)N3CCCCC3)cc12` [Example I-1651], 1000 to 10000 nM. In the case of `O=C(CCn1ccnn1)N1CCC=C(c2ccc3cc(C(=O)N4CCN(CCCO)CC4)[nH]c3c2F)C1` [Example I-1652] it was 1000 to 10000 nM; in that of `COc1cnccc1-c1cc(C2=CCCN(C(=O)CCn3ccnn3)C2)c(F)c2[nH]c(C(=O)N(C)C)cc12` [Example I-1653], less than 100 nM; in that of `COc1ccc(C(F)F)cc1-c1cc(C2=CCCN(C(=O)CCn3ccnn3)C2)cc2[nH]c(C(=O)N(C)C)cc12` [Example I-1654], less than 100 nM. The molecule `CN(C)C(=O)c1cc2c(Oc3ccccc3)cc(C3=CCCN(C(=O)CCn4ccnn4)C3)cc2[nH]1` [Example I-1655] registered an IC50 of less than 100 nM.

`CN(C)C(=O)c1cn2c(F)c(C3=CCCN(C(=O)CCn4ccnn4)C3)ccc2n1` [Example I-1656] had an IC50 of 100 to 1000 nM. Consider `COc1cc2[nH]cnc2cc1-c1cc(C2=CCCN(C(=O)CCn3ccnn3)C2)cc2[nH]c(C(=O)N(C)C)cc12` [Example I-1657], for which the IC50 was less than 100 nM. For `COc1cccc(C)c1-c1cc(C2=CCCN(C(C)=O)C2)c(F)c2[nH]c(C(=O)N(C)C)cc12` [Example I-1658] the value was 100 to 1000 nM; for `Cc1cccc(C)c1-c1cc(C2=CCCN(C(=O)CCn3ccnn3)C2)cc2cc(C(=O)N(C)C)oc12` [Example I-1659], 100 to 1000 nM. `O=C(NCCCCCCO)c1cc2ccc(C3=CCCN(C(=O)CCn4ccnn4)C3)c(F)c2[nH]1` [Example I-1660] gave an IC50 of 1000 to 10000 nM. Turning to `N#Cc1cccc(OCCNC(=O)c2cc3ccc(C4=CCCN(C(=O)CCn5ccnn5)C4)c(F)c3[nH]2)c1` [Example I-1661], the IC50 was 1000 to 10000 nM. `O=C(NCCCCc1ccc(Cl)cc1)c1cc2ccc(C3=CCCN(C(=O)CCn4ccnn4)C3)c(F)c2[nH]1` [Example I-1662] registered an IC50 of 1000 to 10000 nM. `CN(C)C(=O)c1cc2cc(C3=CCCN(C(=O)C[C@H]4Oc5ccccc5NC4=O)C3)ccc2o1` [Example I-1663] showed an IC50 of 1000 to 10000 nM. For `COc1ccc(C(F)(F)F)cc1-c1cc(C2=CCCN(C(=O)CCn3ccnn3)C2)cc2[nH]c(C(=O)N(C)C)cc12` [Example I-1664] the value was less than 100 nM. In the case of `CN(C)C(=O)c1cc2c(-c3ccccn3)cc(C3=CCCN(C(=O)CCn4ccnn4)C3)cc2[nH]1` [Example I-1665] it was less than 100 nM; in that of `COc1cccc(C)c1-c1cc(C2=CCCN(C(=O)CCn3ccnn3)C2)cc2[nH]c(C(=O)N(C)C)cc12` [Example I-1666], less than 100 nM; in that of `CN(C)C(=O)c1cc2c(-c3ccccc3Cl)cc(C3=CCCN(C(=O)CCn4ccnn4)C3)c(F)c2[nH]1` [Example I-1668], less than 100 nM.

Take `COc1ccccc1-c1cc(C2=CCCN(C(=O)CCn3ccnn3)C2)c(F)c2[nH]c(C(=O)N(C)C)cc12` [Example I-1669]: the half-inhibitory concentration (IC50) was less than 100 nM. For `CN(C)C(=O)c1cc2c(-c3cc(C(F)(F)F)ccc3Cl)cc(C3=CCCN(C(=O)CCn4ccnn4)C3)cc2[nH]1` [Example I-1670] the value was 100 to 1000 nM. Consider `COc1cccc(Cl)c1-c1cc(C2=CCCN(C(=O)CCn3ccnn3)C2)cc2[nH]c(C(=O)N(C)C)cc12` [Example I-1671], for which the IC50 is less than 100 nM. For `COc1ccc(C(C)C)cc1-c1cc(C2=CCCN(C(=O)CCn3ccnn3)C2)cc2[nH]c(C(=O)N(C)C)cc12` [Example I-1672] the value was less than 100 nM.
